Measured values reported in PMC10626271.
These are yes or no findings as the source states them, for the method shown.

Molecular target: T1, C-terminal domain of ASPL (ASPL-C, residues 313-553) (human) (UniProt Q9BZE9)
T1 sequence: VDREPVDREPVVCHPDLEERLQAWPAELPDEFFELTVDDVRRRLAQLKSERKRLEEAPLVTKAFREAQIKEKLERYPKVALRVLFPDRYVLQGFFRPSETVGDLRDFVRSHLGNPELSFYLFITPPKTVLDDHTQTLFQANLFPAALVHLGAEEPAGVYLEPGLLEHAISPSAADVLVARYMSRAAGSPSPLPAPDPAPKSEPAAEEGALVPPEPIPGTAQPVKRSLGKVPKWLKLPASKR
Assay: SPR; ASPL-C immobilised on CM5 chip by amine coupling (1000 RU); analytes 0.6 to 83 μM in 10 mM HEPES, 150 mM NaCl, 0.005% Tween20, pH 7.4; BIAcore 3000, duplicates; one-site specific binding fit of the response against concentration; no saturation reached; both purified

binding: no binding (tested: 0.6 to 83 μM)
Substance: His-tagged thioredoxin (Trx) (from UniProt P0AA25 1-109)
